This is an account of results in the RNAGym collection of RNA variant scans (doi:10.7554/elife.90254).

The labels stand for the following.
B1: OR4K15 (parent)
chain: GUUAACGGUCAUAGGCCAUGGAAACUAGGAGCACCAUUUCGCUGCCAGUGAAGAAAUGAACAAAGAAAAUCUGGGCCAGGCAGGCAUCAAAAGAAAUAGUCUUGCGCUCAACCAGAAAGUCUGUAAUCAUUUUAAGGGUA

Read counts are not given, so values of variants with three or more changes are uncertain.

This series covers variants of B1. Put plainly: self-cleavage, relative activity (ratio to wild type); higher = more cleavage; in vitro, sequencing; the parent is a self-cleaving ribozyme.
C85U U100C U132G: the self-cleavage turned out to be 1.88.

For A89C A90G U130C, the self-cleavage was found to be 1.93.

For A82G U120C U131C, the self-cleavage was found to be 0.16.

A78G U87A A96G: the self-cleavage is 0.24.

As to A78G A96G A98U, the self-cleavage stood at 0.19.

For U97C U103C A116G, the self-cleavage is 0.63.

For U97C U122C U124G A129G, the self-cleavage was found to be 0.67.

In the case of A86G A91G A129U A140U, the self-cleavage was determined as 0.07.

For the variant U97C U108C A118G, the self-cleavage is 0.01.

On to A95G U102C U108C, for which the self-cleavage is 0.01.

For A90G A95G U122C U131A, the self-cleavage came out at 1.96.

For G80C A126G A129G, the self-cleavage is 0.02.

Turning to A86U A89G A94G, the self-cleavage stood at 1.78.

As to A82G A95G U100C U131A, the self-cleavage is 1.14.

As to A95G A114G U122C U124C, the self-cleavage was 0.13.

As to A90G A91G U97C, the self-cleavage is 0.91.

U87C A92U A111G: the self-cleavage turned out to be 0.01.

Take A98G U102C A114C A117U: the self-cleavage came out at 0.02.

For the variant A94G A98G U102A A126G, the self-cleavage came out at 0.09.

Consider A78U A82U A110G, for which the self-cleavage came out at 0.02.

For the variant U87C U103A U130A, the self-cleavage is 0.42.

Regarding A92G A94U A111G, the self-cleavage amounted to 0.01.

As to A94G A117G U120C U130C G137A, the self-cleavage came out at 0.37.

Take U87C A118G G136A: the self-cleavage amounted to 1.22.

In the case of U87C A118G U122C, the self-cleavage was found to be 0.75.

Regarding A94G A134G A135G, the self-cleavage worked out at 1.51.

Turning to A94U A114U U139C, the self-cleavage stood at 0.11.

As for U87C U102C U103C, the self-cleavage came to 0.35.

Take A82G U108C A117G: the self-cleavage amounted to 0.01.

As to C88U A117G U124A, the self-cleavage came to 1.05.

For A78U A89G A117G, the self-cleavage worked out at 0.34.

As to U87C U108C U132C A134G, the self-cleavage was found to be 0.

Regarding A92G U97G U102A U103G, the self-cleavage turned out to be 0.09.

For the variant A78U A125G A140G, the self-cleavage was 0.03.

On to A94G U97A U102C, for which the self-cleavage turned out to be 2.76.

As for A96G U102C U130C, the self-cleavage was determined as 1.24.

As for U87A A110G U130C, the self-cleavage came to 0.12.

Consider U87A A110G U130A, for which the self-cleavage turned out to be 0.05.

Take A82G A114G U124C: the self-cleavage stood at 0.05.

In the case of U87C A92G A96G, the self-cleavage was determined as 1.88.

Turning to A94G A98G U122G A126G, the self-cleavage is 1.

On to A95G A114G U130C, for which the self-cleavage was determined as 0.42.

A89G U100C U132C A134C: the self-cleavage amounted to 2.23.

Turning to G84A A89G U103C U127C, the self-cleavage stood at 1.78.

Take A82U A92G A116G: the self-cleavage turned out to be 0.06.

On to A92G U127C U131C, for which the self-cleavage is 1.52.

Consider C81U A91G U102A U124C, for which the self-cleavage was 0.02.

Consider U87C U122C U139C, for which the self-cleavage was determined as 0.66.

As for A98G U108C G123A U133C, the self-cleavage turned out to be 0.

Take U87C A117G U122A: the self-cleavage was determined as 1.09.

On to A78G A92G A110U U131C, for which the self-cleavage turned out to be 0.44.

Regarding A95G A126G G138A, the self-cleavage came to 1.17.

For the variant A96G U102C A118U, the self-cleavage is 1.14.

On to A82G A91C U127G, for which the self-cleavage was found to be 0.6.

Take U87C A116G A125U A135G: the self-cleavage was found to be 1.81.

Regarding A96G U122C A126U, the self-cleavage stood at 1.25.

A91G A110G A118G: the self-cleavage was determined as 0.19.

On to A78G A86G A129G, for which the self-cleavage worked out at 0.23.

In the case of A89G U97G U103A U124C, the self-cleavage turned out to be 0.14.

Take G80A A92G U132C: the self-cleavage was 0.12.

As to A82U A110G U132G, the self-cleavage turned out to be 0.02.

As for A82G A111G U122C, the self-cleavage is 0.

For the variant A82G A98U C105U U122C, the self-cleavage came to 0.08.

G84A A118C U124C A125U: the self-cleavage was found to be 1.18.

Consider G79A U100C U103A A140C, for which the self-cleavage was determined as 0.04.

For the variant A98C U102C U122A, the self-cleavage was found to be 1.27.

Consider A89G U97G A117G, for which the self-cleavage came to 1.7.

For A91G U102C U103C A116G, the self-cleavage was 0.06.

As for A95G A116G A118G, the self-cleavage is 0.52.

With U87C A89G C105U, the self-cleavage amounted to 0.02.

As to C85U A91U U124A, the self-cleavage amounted to 0.53.

With A78U A110G U120C, the self-cleavage was found to be 0.03.

On to U87A A116U U122C, for which the self-cleavage was 0.13.

Take A86U A116C U122A: the self-cleavage came out at 0.06.

For the variant A92G U102C A118U, the self-cleavage came to 2.17.

As for A78G A114C A118C A129G, the self-cleavage was 0.

Consider A91U U120C U122A, for which the self-cleavage was found to be 2.37.

In the case of A91G A98G A114G U120C U131C, the self-cleavage worked out at 0.01.

U87C A90G U122C U131C: the self-cleavage stood at 0.07.

For the variant A78G A94G U127C U131C, the self-cleavage is 0.18.

Take A91G A95C A135U A140G: the self-cleavage is 1.03.

A89G A92G C107A A114G A116U: the self-cleavage was determined as 0.01.

As for U87C A111G U122C A126G, the self-cleavage came to 0.

As for U87C A92C A96G, the self-cleavage is 1.83.

In the case of A89G C113U U122C A129G, the self-cleavage amounted to 0.01.

On to A82U C105U A135U, for which the self-cleavage was found to be 0.02.

On to U87C A90G A140G, for which the self-cleavage stood at 0.36.

A90G U120C U131G: the self-cleavage came to 0.51.

With A86G C105U U108C, the self-cleavage turned out to be 0.01.

For the variant A89G A111G A116G, the self-cleavage was 0.

A91G C128A U132C: the self-cleavage is 0.37.

A95G A98G A129G: the self-cleavage stood at 1.66.

Turning to A89C A96G C101U A118G U130C, the self-cleavage was 0.11.

Regarding A86U A95G U102C U131C, the self-cleavage amounted to 1.86.

For the variant A82U G84A A98U A110U, the self-cleavage worked out at 0.93.

A89G A114G U130A: the self-cleavage is 0.23.

In the case of A96G A117G U124C, the self-cleavage came out at 1.2.

In the case of U97G A98G U130C, the self-cleavage is 1.

U87C A111U U132A: the self-cleavage was determined as 0.15.

For the variant U87A U108A U131C, the self-cleavage was determined as 0.02.

As to A98G U108C U130C, the self-cleavage came to 0.

Take A94G U103C U127C: the self-cleavage amounted to 0.3.

U87C A116U U130C U139C: the self-cleavage was found to be 0.06.

In the case of A92G G106C U127C, the self-cleavage worked out at 0.01.

In the case of A89U A110G A129G, the self-cleavage came out at 0.09.

As to A89G A90U A114U U132C, the self-cleavage amounted to 0.03.

Regarding A90U A116G A134U, the self-cleavage was determined as 1.47.

In the case of A86C U97A U131C, the self-cleavage was found to be 0.51.

As for G80A A111G A118G, the self-cleavage was found to be 0.02.

Consider A95G A110U A126G, for which the self-cleavage was determined as 1.13.

Regarding A78U A91G U100C U102A, the self-cleavage was 0.37.

For G83A A91G U102C, the self-cleavage worked out at 0.25.

With A95G A129G A134G, the self-cleavage came to 1.55.

Consider A82G A116G A135G, for which the self-cleavage amounted to 0.22.

On to A89G A92G U108C U122C A126G U130C, for which the self-cleavage was found to be 0.01.

For A86G A92U A114U, the self-cleavage was found to be 0.02.

Regarding A90G A94G U108C A117G, the self-cleavage came to 0.02.

Consider U97G U100C U132C, for which the self-cleavage is 2.42.

As for A82U A96G U122A, the self-cleavage amounted to 0.03.

Regarding A98G U124C G136U, the self-cleavage was determined as 0.35.

As for A94G U102C A110G, the self-cleavage came to 0.18.

Regarding A90G U122C U127C, the self-cleavage came to 0.35.

Take A86U U87A U100C: the self-cleavage was 2.14.

As for A96G A125G G137U, the self-cleavage is 0.91.

Turning to A94G C105U A140G, the self-cleavage amounted to 0.33.

For A89C U124A A140G, the self-cleavage came to 0.53.

Turning to A94C A118G A134G, the self-cleavage is 1.55.

In the case of U87C A89G A117G, the self-cleavage is 1.67.

For A96G U122C U132C, the self-cleavage is 0.89.

For the variant A90G U108C A110G, the self-cleavage stood at 0.01.

As for A94U U97A A118U, the self-cleavage worked out at 0.69.

As to A91G A114U U131C, the self-cleavage was found to be 0.

For U87C U102C A114G, the self-cleavage was determined as 0.7.

For the variant C88A A116U U139A, the self-cleavage came out at 0.35.

With A78U A118G U122A, the self-cleavage is 0.09.

As for G99A A110G A111G, the self-cleavage is 0.03.

As to A91G A111U U122G, the self-cleavage was 0.05.

Consider A86G U102A U127A, for which the self-cleavage was determined as 0.45.

For U87A A91G U122C, the self-cleavage came to 1.21.

On to A82G A114U U127C, for which the self-cleavage amounted to 0.01.

In the case of A78U U103C U127C, the self-cleavage was determined as 0.01.

In the case of A82G A114G U131A A140G, the self-cleavage is 0.04.

Regarding A94G A117G U122C U124A, the self-cleavage was 0.76.

Take A86G U100C A110U: the self-cleavage came to 2.27.

For U87A A110G A117U, the self-cleavage is 0.22.

Regarding A95G U108C U127C, the self-cleavage came to 0.

Turning to A90G U100A U120C U122C U127C, the self-cleavage came to 0.2.

As for A91G A110G U131C, the self-cleavage amounted to 0.08.

Regarding A78U A91G U100A, the self-cleavage stood at 0.1.

Turning to C85U U108C U139A, the self-cleavage worked out at 0.03.

On to A86G A96G U122C, for which the self-cleavage was 1.17.

Take U100A C128U A134G: the self-cleavage was 0.04.

Regarding A90G U102C A110U A114G U122A, the self-cleavage is 0.3.

A78G C112A A118G U122C: the self-cleavage was 0.

In the case of A95G U102A U108C, the self-cleavage was found to be 0.02.

As for U97C U108C A110U, the self-cleavage was 0.

As to A82G A92G A126C, the self-cleavage was found to be 0.27.

As for A82U A95G U100C, the self-cleavage stood at 1.2.

In the case of G80U A86G U108C, the self-cleavage came out at 0.01.

In the case of A82G A116G C128U, the self-cleavage was determined as 0.05.

With A78U A129G U130C, the self-cleavage was 0.13.

A89U A95U U103C: the self-cleavage is 1.47.

In the case of A91G U97C A118G, the self-cleavage stood at 0.57.

In the case of A95G A96G A125G, the self-cleavage was determined as 0.

Take A82U A95G A118G U120C: the self-cleavage amounted to 0.02.

As for A96G U100C A135U, the self-cleavage was 2.31.

With G80C A89G U108C, the self-cleavage amounted to 0.08.
